Some of the results follow. Many values rest on one well or one pass, so single values are uncertain.
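Note: cells treated in 1,536-well plates, then fixed and DAPI-stained, with nuclei counted from automated high-throughput microscope images.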

The assay deals with LOXIMVI. Briefly: cell count relative to DMSO control; melanoma cells; higher = more viable cells. To be noted: library dose: standard library concentration; 72 h.
Regarding `Cc1cc(Nc2cc(N3CCN(C)CC3)nc(Sc3ccc(NC(=O)C4CC4)cc3)n2)n[nH]1` [Tozasertib] + Cc1cn(-c2cc(NC(=O)c3ccc(C)c(Nc4nccc(-c5cccnc5)n4)c3)cc(C(F)(F)F)c2)cn1 [nilotinib] (first compound 0.03 µM, partner dose 1 µM), the cell count is 96.7%.

The molecule `Cc1cc(Nc2cc(N3CCN(C)CC3)nc(Sc3ccc(NC(=O)C4CC4)cc3)n2)n[nH]1` [Tozasertib] + O=C(O)C(=O)Nc1sc2c(c1C(=O)O)CCNC2 [TCS401] (first compound 0.03 µM, partner dose 8.33333 µM) displayed a cell count of 115%.

The molecule `Cc1cc(Nc2cc(N3CCN(C)CC3)nc(Sc3ccc(NC(=O)C4CC4)cc3)n2)n[nH]1` [Tozasertib] + O=S(=O)(c1ccccc1)N(CC(F)(F)F)c1ccc(C(O)(C(F)(F)F)C(F)(F)F)cc1 [T0901317] (first compound 0.03 µM, partner dose 7 µM) yielded a cell count of 93.4%.

Consider `CC[C@]1(O)C[C@H]2CN(CCc3c([nH]c4ccccc34)[C@@](C(=O)OC)(c3cc4c(cc3OC)N(C=O)[C@H]3[C@@](O)(C(=O)OC)[C@H](OC(C)=O)[C@]5(CC)C=CCN6CC[C@]43[C@@H]65)C2)C1` [vincristine] + O=C(/C=C/c1cccnc1)NCCCCC1CCN(C(=O)c2ccccc2)CC1 [FK866] (first compound 0.0005 µM, partner dose 0.05 µM), for which the cell count is 65.1%.

`Cc1cc(Nc2cc(N3CCN(C)CC3)nc(Sc3ccc(NC(=O)C4CC4)cc3)n2)n[nH]1` [Tozasertib] + OCCn1cc(-c2cnc3nnn(Cc4ccc5ncccc5c4)c3n2)cn1 [PF04217903] (first compound 0.03 µM, partner dose 5 µM) came in with a cell count of 59.7%.

`CC[C@]1(O)C[C@H]2CN(CCc3c([nH]c4ccccc34)[C@@](C(=O)OC)(c3cc4c(cc3OC)N(C=O)[C@H]3[C@@](O)(C(=O)OC)[C@H](OC(C)=O)[C@]5(CC)C=CCN6CC[C@]43[C@@H]65)C2)C1` [vincristine] + C[C@@H]1CCN(C(=O)CC#N)C[C@@H]1N(C)c1ncnc2[nH]ccc12 [CP690550] (first compound 0.0005 µM, partner dose 5 µM) gave a cell count of 59.9%.

Consider `Cc1cc(Nc2cc(N3CCN(C)CC3)nc(Sc3ccc(NC(=O)C4CC4)cc3)n2)n[nH]1` [Tozasertib] + CCCCCCCCCCCCCCCCCCOP(=O)([O-])OC1CC[N+](C)(C)CC1 [Perifosine] (first compound 0.03 µM, partner dose 2 µM), for which the cell count was determined as 78.3%.

On to `CC[C@]1(O)C[C@H]2CN(CCc3c([nH]c4ccccc34)[C@@](C(=O)OC)(c3cc4c(cc3OC)N(C=O)[C@H]3[C@@](O)(C(=O)OC)[C@H](OC(C)=O)[C@]5(CC)C=CCN6CC[C@]43[C@@H]65)C2)C1` [vincristine] + CCCS(=O)(=O)Nc1ccc(F)c(C(=O)c2c[nH]c3ncc(Cl)cc23)c1F [PLX4720] (first compound 0.0005 µM, partner dose 0.4 µM), for which the cell count turned out to be 86.7%.

In turn, `Cc1cc(Nc2cc(N3CCN(C)CC3)nc(Sc3ccc(NC(=O)C4CC4)cc3)n2)n[nH]1` [Tozasertib] + Cc1nc(Nc2ncc(C(=O)Nc3c(C)cccc3Cl)s2)cc(N2CCN(CCO)CC2)n1 [dasatanib] (first compound 0.03 µM, partner dose 0.02 µM) came in with a cell count of 22.9%.

In the case of `CC[C@]1(O)C[C@H]2CN(CCc3c([nH]c4ccccc34)[C@@](C(=O)OC)(c3cc4c(cc3OC)N(C=O)[C@H]3[C@@](O)(C(=O)OC)[C@H](OC(C)=O)[C@]5(CC)C=CCN6CC[C@]43[C@@H]65)C2)C1` [vincristine] + COc1ccc2c(c1)CCC1C2CCC2(C)C(NCCCCCCN3C(=O)C=CC3=O)CCC12 [U73122] (first compound 0.0005 µM, partner dose 2 µM), the cell count amounted to 90.5%.

Molecule `Cc1cc(Nc2cc(N3CCN(C)CC3)nc(Sc3ccc(NC(=O)C4CC4)cc3)n2)n[nH]1` [Tozasertib] + N#Cc1c(O)c2c(-c3ccc(-c4ccccc4O)cc3)csc2[nH]c1=O [A769662] (first compound 0.03 µM, partner dose 10 µM) yielded a cell count of 136%.

The molecule `Cc1cc(Nc2cc(N3CCN(C)CC3)nc(Sc3ccc(NC(=O)C4CC4)cc3)n2)n[nH]1` [Tozasertib] + Cn1cncc1[C@@](N)(c1ccc(Cl)cc1)c1ccc2c(c1)c(-c1cccc(Cl)c1)cc(=O)n2C [tipifarnib] (first compound 0.03 µM, partner dose 0.05 µM) had a cell count of 88.2%.
